Data reported in the supplement of paper PMC6657886.
MIC of clinical N. gonorrhoeae isolates (2015-2017) by agar dilution on GC agar with 1% IsoVitaleX (ranges not stated); higher = less susceptible. No active / inactive call per row; the paper counts benzylpenicillin above 1 and ceftriaxone above 0.125 mg/L as resistant (EUCAST). The method is stated for benzylpenicillin and ceftriaxone and assumed for the other drugs. '<=' is inferred from pile-ups at the end values. Isolates are numbered anew.

How the values were obtained:
Experiment in all cases: Agar dilution on enriched GC agar; resistance determinants by microarray.
tetracycline = compound: CN(C)[C@@H]1C(O)=C(C(N)=O)C(=O)[C@@]2(O)C(O)=C3C(=O)c4c(O)cccc4[C@@](C)(O)[C@H]3C[C@@H]12 [tetracycline]
azithromycin = compound: CC[C@H]1OC(=O)[C@H](C)[C@@H](O[C@H]2C[C@@](C)(OC)[C@@H](O)[C@H](C)O2)[C@H](C)[C@@H](O[C@@H]2O[C@H](C)C[C@H](N(C)C)[C@H]2O)[C@](C)(O)C[C@@H](C)CN(C)[C@H](C)[C@@H](O)[C@]1(C)O [azithromycin]
ceftriaxone = compound: CO/N=C(\C(=O)N[C@@H]1C(=O)N2C(C(=O)O)=C(CSc3nc(=O)c(O)nn3C)CS[C@H]12)c1csc(N)n1 [ceftriaxone]
benzylpenicillin = compound: CC1(C)S[C@@H]2[C@H](NC(=O)Cc3ccccc3)C(=O)N2[C@H]1C(=O)O [benzylpenicillin]
spectinomycin = compound: CN[C@@H]1[C@H](O)[C@H](NC)[C@H]2O[C@@]3(O)C(=O)C[C@@H](C)O[C@H]3O[C@@H]2[C@H]1O [spectinomycin]

| Test System | MIC (tetracycline) [µg/mL] | MIC (azithromycin) [µg/mL] | MIC (ceftriaxone) [µg/mL] | MIC (benzylpenicillin) [µg/mL] | MIC (spectinomycin) [µg/mL] |
| --- | --- | --- | --- | --- | --- |
| Neisseria gonorrhoeae isolate 455 (blaTEM plasmid: no, gyrA: wild type, mtrR promoter: wild type, parC: Arg87, Glu91, penA: wild type, ponA: wild type, porB: wild type, rpsJ: Met57, tetM plasmid: no) | 0.5 | 0.004 | ≤ 0.002 | ≤ 0.015 | 32 |
| Neisseria gonorrhoeae isolate 264 (blaTEM plasmid: yes, gyrA: Phe91, Asn95, mtrR promoter: wild type, parC: wild type, penA: wild type, ponA: wild type, porB: wild type, rpsJ: Met57, tetM plasmid: yes) | 8 | 0.06 | ≤ 0.002 | ≥ 32 | 16 |
| Neisseria gonorrhoeae isolate 16 (blaTEM plasmid: no, gyrA: Thr91, Gly95, mtrR promoter: wild type, parC: wild type, penA: ins345Asp, ponA: Pro421, porB: wild type, rpsJ: Met57, tetM plasmid: no) | 0.5 | 0.015 | ≤ 0.002 | 0.06 | 16 |
| Neisseria gonorrhoeae isolate 287 (blaTEM plasmid: yes, gyrA: Phe91, Asp95, mtrR promoter: wild type, parC: wild type, penA: ins345Asp, ponA: wild type, porB: wild type, rpsJ: Met57, tetM plasmid: yes) | 16 | 0.12 | ≤ 0.002 | ≥ 32 | 32 |
| Neisseria gonorrhoeae isolate 397 (blaTEM plasmid: no, gyrA: Phe91, Gly95, mtrR promoter: wild type, parC: Arg87, Glu91, penA: ins345Asp, ponA: Pro421, porB: wild type, rpsJ: Met57, tetM plasmid: no) | 0.5 | 0.015 | 0.004 | 0.25 | 32 |
| Neisseria gonorrhoeae isolate 488 (blaTEM plasmid: no, gyrA: Phe91, Asn95, mtrR promoter: wild type, parC: Arg 87, Glu91, penA: ins345Asp, ponA: Pro421, porB: wild type, rpsJ: Met57, tetM plasmid: no) | 0.5 | 0.06 | ≤ 0.002 | 0.12 | 32 |
| Neisseria gonorrhoeae isolate 204 (blaTEM plasmid: no, gyrA: wild type, mtrR promoter: wild type, parC: wild type, penA: wild type, ponA: wild type, porB: wild type, rpsJ: wild type, tetM plasmid: no) | 0.25 | 0.25 | ≤ 0.002 | ≤ 0.015 | 8 |
| Neisseria gonorrhoeae isolate 98 (blaTEM plasmid: no, gyrA: wild type, mtrR promoter: wild type, parC: wild type, penA: wild type, ponA: wild type, porB: wild type, rpsJ: wild type, tetM plasmid: no) | 0.06 | 0.12 | ≤ 0.002 | ≤ 0.015 | 8 |
| Neisseria gonorrhoeae isolate 361 (blaTEM plasmid: no, gyrA: wild type, mtrR promoter: wild type, parC: wild type, penA: wild type, ponA: wild type, porB: wild type, rpsJ: wild type, tetM plasmid: no) | 0.12 | 0.06 | ≤ 0.002 | ≤ 0.015 | 16 |
| Neisseria gonorrhoeae isolate 387 (blaTEM plasmid: no, gyrA: Phe91, Gly95, mtrR promoter: -35delA, parC: Arg87, Glu91, penA: ins345Asp, ponA: Pro421, porB: wild type, rpsJ: Met57, tetM plasmid: no) | 4 | 0.03 | 0.008 | 0.25 | 32 |
| Neisseria gonorrhoeae isolate 7 (blaTEM plasmid: no, gyrA: Phe91, Asn95, mtrR promoter: wild type, parC: Arg87, Glu91, penA: ins345Asp, ponA: Pro421, porB: wild type, rpsJ: Met57, tetM plasmid: no) | 1 | 0.25 | ≤ 0.002 | 0.25 | 16 |
| Neisseria gonorrhoeae isolate 379 (blaTEM plasmid: no, gyrA: Thr91, Gly95, mtrR promoter: wild type, parC: wild type, penA: ins345Asp, ponA: wild type, porB: wild type, rpsJ: Met57, tetM plasmid: no) | 1 | 0.12 | ≤ 0.002 | 0.25 | 16 |
| Neisseria gonorrhoeae isolate 244 (blaTEM plasmid: no, gyrA: wild type, mtrR promoter: wild type, parC: wild type, penA: wild type, ponA: wild type, porB: wild type, rpsJ: wild type, tetM plasmid: no) | 0.25 | 0.12 | ≤ 0.002 | ≤ 0.015 | 16 |
| Neisseria gonorrhoeae isolate 105 (blaTEM plasmid: no, gyrA: Phe91, Gly95, mtrR promoter: -35delA, parC: Arg87, Glu91, penA: ins345Asp, ponA: Pro421, porB: wild type, rpsJ: Met57, tetM plasmid: no) | 0.03 | 0.25 | 0.008 | 0.5 | 16 |
| Neisseria gonorrhoeae isolate 232 (blaTEM plasmid: no, gyrA: wild type, mtrR promoter: wild type, parC: wild type, penA: ins345Asp, ponA: wild type, porB: wild type, rpsJ: wild type, tetM plasmid: no) | 0.5 | 0.12 | 0.004 | 0.03 | 32 |
| Neisseria gonorrhoeae isolate 99 (blaTEM plasmid: no, gyrA: Thr91, Gly95, mtrR promoter: wild type, parC: wild type, penA: wild type, ponA: wild type, porB: wild type, rpsJ: wild type, tetM plasmid: yes) | 16 | 0.12 | 0.008 | 0.12 | 16 |
| Neisseria gonorrhoeae isolate 28 (blaTEM plasmid: no, gyrA: Phe91, Gly95, mtrR promoter: wild type, parC: wild type, penA: ins345Asp, ponA: Pro421, porB: Asp120, Ala121, rpsJ: Met57, tetM plasmid: no) | 2 | 0.03 | 0.015 | 1 | 32 |
| Neisseria gonorrhoeae isolate 406 (blaTEM plasmid: no, gyrA: wild type, mtrR promoter: wild type, parC: wild type, penA: ins345Asp, ponA: Pro421, porB: wild type, rpsJ: Met57, tetM plasmid: no) | 0.5 | 0.06 | ≤ 0.002 | 0.06 | 8 |
| Neisseria gonorrhoeae isolate 68 (blaTEM plasmid: no, gyrA: Phe91, Gly95, mtrR promoter: wild type, parC: Arg87, Glu91, penA: ins345Asp, ponA: wild type, porB: Asn120, Asp121, rpsJ: Met57, tetM plasmid: no) | 2 | 0.5 | 0.008 | 0.5 | 16 |
| Neisseria gonorrhoeae isolate 93 (blaTEM plasmid: yes, gyrA: Phe91, Asp95, mtrR promoter: wild type, parC: wild type, penA: ins345Asp, ponA: wild type, porB: wild type, rpsJ: Met57, tetM plasmid: yes) | 16 | 0.06 | ≤ 0.002 | ≥ 32 | 32 |
| Neisseria gonorrhoeae isolate 134 (blaTEM plasmid: no, gyrA: wild type, mtrR promoter: wild type, parC: wild type, penA: ins345Asp, ponA: wild type, porB: wild type, rpsJ: wild type, tetM plasmid: no) | 0.5 | 0.25 | 0.004 | 0.12 | 16 |
| Neisseria gonorrhoeae isolate 341 (blaTEM plasmid: no, gyrA: wild type, mtrR promoter: wild type, parC: wild type, penA: ins345Asp, ponA: Pro421, porB: wild type, rpsJ: wild type, tetM plasmid: no) | 0.12 | 0.06 | ≤ 0.002 | 0.03 | 8 |
| Neisseria gonorrhoeae isolate 485 (blaTEM plasmid: yes, gyrA: Phe91, Asp95, mtrR promoter: wild type, parC: wild type, penA: ins345Asp, ponA: wild type, porB: wild type, rpsJ: Met57, tetM plasmid: yes) | 16 | 0.06 | ≤ 0.002 | ≥ 32 | 8 |
| Neisseria gonorrhoeae isolate 174 (blaTEM plasmid: no, gyrA: wild type, mtrR promoter: wild type, parC: wild type, penA: ins345Asp, ponA: wild type, porB: wild type, rpsJ: Met57, tetM plasmid: no) | 0.03 | 0.06 | ≤ 0.002 | 0.12 | 32 |
| Neisseria gonorrhoeae isolate 97 (blaTEM plasmid: no, gyrA: Phe91, Gly95, mtrR promoter: -35delA, parC: Arg87, Glu91, penA: ins345Asp, ponA: Pro421, porB: wild type, rpsJ: Met57, tetM plasmid: no) | 1 | 0.5 | 0.004 | 0.12 | 16 |
